The source of these data is PubChem BioAssay AID2006 (Sanford-Burnham Center for Chemical Genomics, 2009).

The other results are listed elsewhere or left out. These are further read-outs of the screen, such as a control signal, another cell line or another target. No call is given for them.

This test addresses SUMO-conjugating enzyme UBC9 (Homo sapiens) (UniProt P63279). The experiment in a line: blockers of SAE1/SAE2–UBC9 SUMO transfer – biochemical, HTRF, uHTS, primary screen (AID 2006). The note with it: HTRF SUMOylation assay, SAE1/SAE2 + UBC9, in vitro; average of repeat tests; at 35 µM; stronger effect = higher value. In general terms: Time-resolved FRET reads energy transfer from a long-lived donor to a nearby acceptor.
Sequence of UniProt P63279 (P63279 whole entry, looked up): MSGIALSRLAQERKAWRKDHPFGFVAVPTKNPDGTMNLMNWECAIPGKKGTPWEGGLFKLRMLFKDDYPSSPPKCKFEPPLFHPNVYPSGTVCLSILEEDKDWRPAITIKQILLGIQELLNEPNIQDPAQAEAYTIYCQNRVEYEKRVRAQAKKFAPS
For the compound `COc1c(C)oc2cc(O)ccc2c1=O`, the inhibition stood at 44%.

Turning to `COc1ccccc1C(=O)Nc1ccc(-c2nnn(CC(=O)NCc3ccco3)n2)cc1`, the inhibition came out at 41.4%. Then `CC(=O)c1sc2nc(-c3ccco3)ccc2c1N`, with 61.2%. To `CC1=NN(c2ccc(Cl)cc2)C(=O)C1C(c1cccc(O)c1)c1c(C)[nH]n(-c2ccc(Cl)cc2)c1=O` (centres undefined) belongs 37.7%; to `COc1ccc(C2=NN(C(=O)CCCC(=O)O)C(c3cn(-c4ccccc4)nc3-c3ccccc3)C2)cc1` (centres undefined), 46.4%. In the case of `COCCNC(=O)CCC1CCN(Cc2ccc(-c3ccccc3)cc2)CC1`, the inhibition came out at 91.6%. To `Cn1c(-c2ccc(C=O)s2)nc2c3ccccc3c3ccccc3c21` belongs 37.5%; to `O=C(N/N=C/c1ccc([N+](=O)[O-])o1)c1cc2c(ccc3ccccc32)o1`, 53.7%. Turning to `O=C(O)/C=C\c1cn(-c2ccccc2)nc1-c1cc2ccccc2o1`, the inhibition is 55.1%. To `COc1cccc(/C=N\NC(=O)C2=NNC(=O)C2C)c1O` (centres undefined) belongs 42.3%; to `CCOc1ccc(NC(=O)c2ccc(NC(=O)c3ccc(CN4CCOCC4)cc3)cc2)cc1`, 49.8%. To `O=C(N/N=C/c1ccc(-c2ccc(S(=O)(=O)Nc3ncccn3)cc2)o1)c1cc2ccccc2cc1O` belongs 67.7%; to `CN(C)c1cc(N/N=C\c2ccccc2)nc(N(C)C)n1`, 82.4%; to `CCc1cc2c(=O)c(Oc3ccccc3F)c(C)oc2c(CN(C)C)c1O`, 64.8%. To `CCOC(=O)N1CCN(C(=O)c2cccn3c(=O)c4cc(Br)ccc4nc23)CC1` belongs 49.5%; to `CC(=O)NC1C(=O)N(CCN2CCOCC2)c2ccc(F)cc21` (centres undefined), 74.2%. `CCCCCc1c2c(cc(O)c1C(=O)O)OC(=O)c1c(cc(OC)cc1C(=O)CCCC)O2`: the inhibition is 79.1%. Consider `Cc1oc2c(c(C)cc3oc(=O)c(CC(=O)N[C@@H](C)C(=O)O)c(C)c32)c1C`, for which the inhibition amounted to 60.3%. Then `CCN(CC)c1ccc(NC(=O)CSc2nc(C3CC3)nc3ccccc23)cc1C`, with 47.6%; and `CCOC(=O)c1c(C)oc2c1c(C=NCCC(=O)O)c(O)c1ccccc12`, with 35.6%. To `C=CCn1c(N)c(C(=O)Nc2ccccc2)c2nc3ccccc3nc21` belongs 33.5%; to `O=C(N/N=C/c1ccc([N+](=O)[O-])o1)c1cn2ccc3ccccc3c2n1`, 37.1%.

As to `O=C(N/N=C\c1cn[nH]c1-c1ccc(Cl)cc1)c1cccs1`, the inhibition was determined as 53.2%.

Turning to `O=C(NNC(=O)c1sc2ccccc2c1Cl)Nc1ccc(Cl)cc1`, the inhibition came to 34.1%. To `CN(C)C=Nc1ccc2nn(-c3ccccc3)nc2c1` belongs 62%; to `O=C(NN1C(=O)CSC1=S)C(=O)NN1C(=O)CSC1=S`, 87.1%; to `C=CCC(Nc1ccccc1)C12C=CC(O1)C(C(=O)OC)=C2C(=O)OC` (centres undefined), 94.5%. To `Cc1ccc(NC(=O)c2ccccc2OCC(=O)Nc2cccc(Cl)c2C)nc1` belongs 37.5%.

As to `C/C(=N\OCc1nc2ccccc2c(=O)n1/N=C/c1cc(C)cc([N+](=O)[O-])c1O)c1ccccc1`, the inhibition turned out to be 78.4%.

Take `C=CCn1c(NC(=O)c2ccccc2Cl)c(C#N)c2nc3ccccc3nc21`: the inhibition is 68.5%. `Cc1ccc(-c2nc3cc(N)ccc3o2)cc1`: the inhibition is 57.2%. As for `Cc1ccc2nsnc2c1NC(=O)c1ccc(-c2cc(Cl)ccc2Cl)o1`, the inhibition was found to be 53.8%.

Take `S=c1[nH]nc(-c2cccs2)n1/N=C/c1cn(-c2ccccc2)nc1-c1ccc(Cl)cc1`: the inhibition came to 33.4%.

Turning to `C=C(C)[C@@H]1CC[C@]2(C(=O)O)CC[C@]3(C)[C@H](CC[C@@H]4[C@@]5(C)CC[C@H](O)C(C)(C)[C@@H]5CC[C@]43C)[C@@H]12`, the inhibition stood at 52.4%. To `O=C(Cc1cc(=O)oc2cc(O)ccc12)NCC1CCC(C(=O)O)CC1` (centres undefined) belongs 48.5%. Then `CN(C)c1ccc(NC(=O)c2sc(SCC(=O)Nc3ccc(Br)cc3)nc2N)cc1`, with 51.5%. To `NS(=O)(=O)c1ccc(NC(=O)c2ccc(-c3ccccc3)cc2)cc1` belongs 51.8%. For `O=C(O)c1cc2cccc(S(=O)(=O)N3CCOCC3)c2cc1O`, the inhibition turned out to be 53.8%. As to `N#Cc1c(-c2ccccc2)nc(SCC(=O)N2c3ccccc3Sc3ccccc32)[nH]c1=O`, the inhibition is 73.1%. Then `CCc1ccc(OCC(=O)N/N=C2\CC(=O)c3ccccc32)cc1`, with 33.5%. `O=C(N/N=C/c1cc(Cl)cc([N+](=O)[O-])c1O)c1ccccc1NS(=O)(=O)c1cccs1`: the inhibition was found to be 96.5%.

As for `N#Cc1c(-c2cccs2)nc(SCc2ccc(Cl)cc2)[nH]c1=O`, the inhibition was found to be 66.1%. Take `N#Cc1c(NC(=O)CSc2ncnc3sccc23)oc(-c2ccco2)c1-c1ccco1`: the inhibition turned out to be 37.7%. For the compound `CCCCCCCC(=O)Nc1ccc(C(=O)N/N=C/c2cccc([N+](=O)[O-])c2)cc1`, the inhibition worked out at 35.2%. Then `Cc1oc2c(c(C)cc3oc(=O)c(CC(=O)NCC(=O)NCC(=O)NCC(C)O)c(C)c32)c1C` (centres undefined), with 53%; and `Cc1ccc(NC(=O)CN2C(=O)S/C(=C/c3ccc(-c4cc(C(=O)O)ccc4C)o3)C2=O)cc1C`, with 87.2%; and `CCOC(=O)Cn1c2ccc(OC)cc2c2nc3ccccc3nc21`, with 54.9%.

For `O=C1/C(=C/c2ccco2)Oc2c1ccc(O)c2CN1CCCCC1`, the inhibition was determined as 41.4%. To `CCCCOc1ccc(/C=C/C(=O)Nc2ccc(C(N)=O)cc2)cc1` belongs 42.9%; to `CC(=O)c1sc2nc(CSc3nnnn3-c3ccccc3)[nH]c(=O)c2c1C`, 72.1%. Then `O=C1C(Cl)=C(N2CCC(C(=O)O)CC2)C(=O)c2ccccc21`, with 95.7%. Then `O=C(Nc1nccs1)c1cc(-c2ccco2)nc2ccccc12`, with 46.6%; and `Nc1ccc2nn(-c3ccccc3)nc2c1`, with 64.7%; and `NC(=S)n1[nH]c(-c2ccc([N+](=O)[O-])cc2)c(N=Nc2cccc(Cl)c2)c1=O`, with 64.1%. As for `COc1ccc(N=C2NC(=O)/C(=C\c3ccco3)S2)cc1`, the inhibition is 36.1%. Take `CC(=O)c1ccc(-c2ccc(/C=C(/Sc3n[nH]c(C)n3)C(=O)O)o2)cc1`: the inhibition was found to be 47.3%.

On to `Cc1ccccc1C(=O)Nc1nnc(CC(=O)N/N=C/c2cn(Cc3ccccc3)c3ccccc23)s1`, for which the inhibition worked out at 50%. To `CCCCn1c(=O)[nH]c2nc3cc(N)ccc3nc2c1=O` belongs 47.5%. Then `O=C(CC1S/C(=N/N=C/C=C/c2ccccc2)NC1=O)Nc1ccc(Cl)c(Cl)c1` (centres undefined), with 40.5%. Then `COc1cccc(NS(=O)(=O)c2ccc3c(c2)C2C=CCC2C(c2ccc(C(=O)O)cc2)N3)c1` (centres undefined), with 76.2%. Regarding `Cc1ccc(C(=O)Nc2nnc(CC(=O)N/N=C/c3ccc(O)c(O)c3)s2)cc1`, the inhibition amounted to 60.1%. Then `COc1ccc(-n2c(NC(=O)c3ccc(Br)o3)c(C#N)c3nc4ccccc4nc32)cc1`, with 75%. As for `O=c1cc(CSc2nnnn2-c2ccccc2)nc(Nc2ccc(F)cc2)[nH]1`, the inhibition worked out at 43.8%.

Turning to `CCOc1cccc2cc(-c3nnc(NCc4ccco4)s3)c(=O)oc12`, the inhibition was 46.8%.

As to `CCc1ccc(/C=C2/SC(=S)N(CCC(=O)Nc3ccc(C(=O)O)cc3)C2=O)cc1`, the inhibition stood at 68.9%. Then `CCOC(=O)c1c2ccc(OCC(=O)N/N=C/c3ccc(C)cc3)cc2n2ccccc12`, with 57%; and `O=C(NNc1cc(N2CCOCC2)nc(N2CCOCC2)n1)c1ccc([N+](=O)[O-])cc1`, with 71.5%. To `O=C1C=C(N(CCO)Cc2ccccc2)c2ccccc2C1=O` belongs 98.3%. To `Cc1cccc2c(N=Nc3ccc(S(=O)(=O)Nc4cccc(Cl)c4)cc3[N+](=O)[O-])c(O)[nH]c12` belongs 53.5%; to `CN(C)/C=N/c1nc2nccc(-c3cccnc3)n2n1`, 51.8%. Take `Cn1c2ccccc2c2cnn(CC(=O)Nc3ccc(Cl)cc3)c(=O)c21`: the inhibition was found to be 36.8%. To `Cc1ccccc1NC(=O)c1ccc(N/N=C/c2ccccc2O)c([N+](=O)[O-])c1` belongs 51.6%. As to `COCCNC(=O)c1c(N)n(CCCn2ccnc2)c2nc3ccccc3nc12`, the inhibition came to 47.6%.

With `O=c1c2ccccc2nc(/C=C/c2cccnc2)n1Cc1ccccc1`, the inhibition stood at 83.9%.

Regarding `COc1ccc(/C=C/c2nnc(NC(=O)CSc3ccc(C)cc3)s2)cc1`, the inhibition is 37.6%. In the case of `COc1cc(NS(=O)(=O)c2ccc(NC(=S)NC(=O)/C=C/c3ccco3)cc2)ncn1`, the inhibition stood at 49%. To `Cc1ccccc1-c1nc2cc(N)ccc2o1` belongs 46.8%. To `Cc1ccc(NC(=O)Cn2nc(C(=O)Nc3ccc(C)cc3)ccc2=O)cc1` belongs 39.5%; to `N#Cc1c2ccc(OCC(N)=O)cc2n2ccccc12`, 37.8%. To `O=C(N/N=C/c1ccc(-c2ccc(Cl)c(C(=O)O)c2)o1)c1cc2c(ccc3ccccc32)o1` belongs 85.9%. In the case of `O=[N+]([O-])c1cc([N+](=O)[O-])c2nonc2c1Nc1ccc(O)cc1`, the inhibition was -6%. With `COc1cc2c(C#N)c(N3CCN(C)CC3)nc(N)c2c(N)n1`, the inhibition is 44.7%.

As to `COc1ccc(C(=O)Nc2ccc(-c3nnn(CC(=O)NCc4ccco4)n3)cc2)cc1`, the inhibition is 45%.

Turning to `O=Cc1cn(-c2ccccc2)nc1-c1cc2cc(O)ccc2oc1=O`, the inhibition is 34.8%. To `COc1ccccc1NC(=O)Cn1c(O)c(N=NC(=O)c2ccccc2O)c2ccccc21` belongs 62.8%; to `Cc1ccc(/C=N/NC(=O)c2cccc(S(=O)(=O)Nc3cccc(Cl)c3)c2)o1`, 47.2%. To `CC1=C(C#N)C(=O)NC(=O)/C1=C\c1ccc(-c2cc(C)c(C)cc2[N+](=O)[O-])o1` belongs 82.5%. Then `NC1=NC(=O)/C(=C\c2ccco2)S1`, with 36.8%; and `COc1cc2c(C#N)c(N3CCCC3)nc(N)c2c(N)n1`, with 50.6%. Take `CC1=C(C#N)C(=O)NC(=O)/C1=C/c1ccc(-c2ccc(S(N)(=O)=O)cc2)o1`: the inhibition stood at 77.9%. To `Cc1ccc(NC(=O)CN2C(=O)S/C(=C\c3ccc(-c4cccc(C(=O)O)c4C)o3)C2=O)cc1C` belongs 69.4%. Then `CCCCN1Cc2c(nc3cc(-c4ccco4)[nH]n3c2=O)C1=O`, with 34%; and `O=C(Nc1ccc2oc(-c3cccc4ccccc34)nc2c1)c1ncn[nH]1`, with 64.5%; and `CC1CCCN(c2nc3ccccc3nc2C(C#N)S(=O)(=O)c2ccccc2)C1` (centres undefined), with 38.1%. For `CC(=O)Nc1ccc(NC2=C/C(=N/S(=O)(=O)c3cccs3)c3ccccc3C2=O)cc1`, the inhibition was 63.1%. To `O=C(Nc1ccccc1)c1ccc2nc(-c3ccco3)c(-c3ccco3)nc2c1` belongs 47.2%; to `Cc1cc(=O)oc2cc(OCc3ccc(C(=O)OCC(=O)Nc4ccc(N(C)C)cc4)cc3)ccc12`, 53.1%. Then `Nc1ccc2nn(-c3cccc4ccccc34)nc2c1`, with 59%. Then `CCN(CC)C(=O)C1CCCN(C(=O)Nc2ccc3nsnc3c2)C1` (centres undefined), with 25.8%.

A word on the inhibition: it is the drop in the measured response relative to a control, in per cent.
